The record followed here is PMC9274187.

Protein sequences, listed by entry. Tags and fused reporters are not part of them. Lines headed by an entry give the natural chain unless they say otherwise; changes in a name come on top. Residues count along the entry.
UniProt Q9P289: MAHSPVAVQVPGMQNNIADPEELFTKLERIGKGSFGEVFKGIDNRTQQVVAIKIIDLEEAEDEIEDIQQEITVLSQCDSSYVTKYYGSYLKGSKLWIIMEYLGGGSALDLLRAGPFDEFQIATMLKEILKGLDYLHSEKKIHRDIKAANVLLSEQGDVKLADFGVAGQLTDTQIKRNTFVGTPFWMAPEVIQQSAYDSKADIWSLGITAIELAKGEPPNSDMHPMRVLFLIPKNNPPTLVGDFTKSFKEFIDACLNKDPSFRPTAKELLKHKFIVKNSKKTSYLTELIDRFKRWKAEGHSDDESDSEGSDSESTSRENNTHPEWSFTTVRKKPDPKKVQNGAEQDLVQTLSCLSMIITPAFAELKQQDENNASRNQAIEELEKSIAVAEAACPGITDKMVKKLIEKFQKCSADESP
Flag-MST4 amino acids 1-297 (N-terminal kinase domain): residues 1-297 of Q9P289
Flag-MST4 amino acids 297-416 (C-terminal regulatory domain): residues 297-416 of Q9P289
UniProt Q7Z434: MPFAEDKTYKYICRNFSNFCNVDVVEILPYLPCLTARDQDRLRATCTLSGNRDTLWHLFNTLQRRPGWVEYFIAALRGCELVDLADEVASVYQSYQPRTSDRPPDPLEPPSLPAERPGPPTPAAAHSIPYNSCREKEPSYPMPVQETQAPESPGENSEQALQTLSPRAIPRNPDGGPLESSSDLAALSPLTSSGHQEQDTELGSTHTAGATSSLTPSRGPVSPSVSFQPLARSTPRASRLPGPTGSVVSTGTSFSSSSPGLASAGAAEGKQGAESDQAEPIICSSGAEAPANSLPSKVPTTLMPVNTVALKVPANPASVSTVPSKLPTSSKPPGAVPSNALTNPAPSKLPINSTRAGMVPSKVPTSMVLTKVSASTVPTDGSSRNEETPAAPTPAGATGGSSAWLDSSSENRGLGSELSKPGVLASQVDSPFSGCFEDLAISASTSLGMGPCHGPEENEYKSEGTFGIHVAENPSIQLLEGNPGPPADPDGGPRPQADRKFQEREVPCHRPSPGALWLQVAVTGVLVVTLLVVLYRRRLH
HA-MAVS 360-540: residues 360-540 of Q7Z434
UniProt Q9HCE7: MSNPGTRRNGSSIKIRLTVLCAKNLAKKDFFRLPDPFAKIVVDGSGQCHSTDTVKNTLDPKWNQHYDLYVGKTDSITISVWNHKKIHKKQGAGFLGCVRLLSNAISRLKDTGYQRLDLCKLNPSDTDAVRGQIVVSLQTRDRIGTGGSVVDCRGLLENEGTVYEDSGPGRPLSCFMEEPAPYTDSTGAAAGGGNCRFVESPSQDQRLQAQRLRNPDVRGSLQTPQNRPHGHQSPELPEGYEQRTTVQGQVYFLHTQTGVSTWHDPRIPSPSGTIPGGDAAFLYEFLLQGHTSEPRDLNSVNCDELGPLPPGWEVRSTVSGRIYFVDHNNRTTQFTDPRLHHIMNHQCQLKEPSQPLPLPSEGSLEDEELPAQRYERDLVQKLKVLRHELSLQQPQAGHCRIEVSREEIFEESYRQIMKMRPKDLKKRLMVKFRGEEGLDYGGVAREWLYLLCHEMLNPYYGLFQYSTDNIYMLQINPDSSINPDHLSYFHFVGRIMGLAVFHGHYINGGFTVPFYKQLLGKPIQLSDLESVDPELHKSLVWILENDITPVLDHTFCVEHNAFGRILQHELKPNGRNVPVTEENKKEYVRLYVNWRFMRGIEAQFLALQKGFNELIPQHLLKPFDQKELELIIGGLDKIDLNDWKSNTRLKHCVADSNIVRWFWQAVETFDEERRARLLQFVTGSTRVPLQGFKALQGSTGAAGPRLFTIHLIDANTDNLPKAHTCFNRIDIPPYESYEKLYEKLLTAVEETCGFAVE

These are yes or no findings as the source states them, for the method shown. Binding seen in cells or lysates may run through a third protein. Some binding calls cover weakened binding; strength is not graded here. For part of these data: Tags and fused reporters may be left off the sequences shown.

Test [1] deals with Flag-MST4, full length (human) (UniProt Q9P289). Description: co-IP; 293T cells co-transfected with both tagged proteins for 24 h; lysis in 1% NP40, 150 mM NaCl, 10 mM Tris-HCl pH 8.0, 10% glycerol, 1 mM EDTA; anti-Flag sepharose at 4 °C overnight; five washes with 300 mM NaCl; immunoblot.
Test [2] has as its target Flag-MST4 amino acids 1-297 (N-terminal kinase domain) (human) (UniProt Q9P289). Described as above.
Test [3] addresses Flag-MST4 amino acids 297-416 (C-terminal regulatory domain) (human) (UniProt Q9P289). The test is described as above.
The target in another test is T1, Flag-IKKε (human) (UniProt Q14164).
T1 sequence: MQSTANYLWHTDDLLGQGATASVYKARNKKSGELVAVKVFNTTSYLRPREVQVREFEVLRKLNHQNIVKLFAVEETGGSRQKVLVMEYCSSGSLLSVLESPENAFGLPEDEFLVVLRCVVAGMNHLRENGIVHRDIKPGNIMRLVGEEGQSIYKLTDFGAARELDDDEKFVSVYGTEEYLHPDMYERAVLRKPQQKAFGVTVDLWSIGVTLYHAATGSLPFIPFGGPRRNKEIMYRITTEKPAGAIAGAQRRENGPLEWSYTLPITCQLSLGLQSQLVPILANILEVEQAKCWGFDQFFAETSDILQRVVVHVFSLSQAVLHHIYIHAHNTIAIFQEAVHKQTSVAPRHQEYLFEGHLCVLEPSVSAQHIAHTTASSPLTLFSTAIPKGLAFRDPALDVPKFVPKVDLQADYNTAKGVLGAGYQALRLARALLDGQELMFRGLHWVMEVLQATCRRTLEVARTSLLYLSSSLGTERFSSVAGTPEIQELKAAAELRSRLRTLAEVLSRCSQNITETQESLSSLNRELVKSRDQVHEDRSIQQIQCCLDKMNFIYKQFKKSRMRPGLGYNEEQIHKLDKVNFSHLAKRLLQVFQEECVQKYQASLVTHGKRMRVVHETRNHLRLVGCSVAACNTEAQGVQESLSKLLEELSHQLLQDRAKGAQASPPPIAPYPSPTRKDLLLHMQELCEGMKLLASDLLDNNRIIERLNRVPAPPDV
Description: co-IP; competition format: 293T cells co-transfected for 24 h with a Flag-tagged bait, a tagged partner and a third protein (increasing amounts of Myc-MST4; or Myc-TRAF3 and Myc-MST4 together); anti-Flag beads; immunoblot. (In general: In western blotting, separated proteins are transferred to a membrane and probed.)

The target in test [4] is T2, Flag-RIG-I (retinoic acid-inducible gene I) (UniProt O95786).
T2 sequence: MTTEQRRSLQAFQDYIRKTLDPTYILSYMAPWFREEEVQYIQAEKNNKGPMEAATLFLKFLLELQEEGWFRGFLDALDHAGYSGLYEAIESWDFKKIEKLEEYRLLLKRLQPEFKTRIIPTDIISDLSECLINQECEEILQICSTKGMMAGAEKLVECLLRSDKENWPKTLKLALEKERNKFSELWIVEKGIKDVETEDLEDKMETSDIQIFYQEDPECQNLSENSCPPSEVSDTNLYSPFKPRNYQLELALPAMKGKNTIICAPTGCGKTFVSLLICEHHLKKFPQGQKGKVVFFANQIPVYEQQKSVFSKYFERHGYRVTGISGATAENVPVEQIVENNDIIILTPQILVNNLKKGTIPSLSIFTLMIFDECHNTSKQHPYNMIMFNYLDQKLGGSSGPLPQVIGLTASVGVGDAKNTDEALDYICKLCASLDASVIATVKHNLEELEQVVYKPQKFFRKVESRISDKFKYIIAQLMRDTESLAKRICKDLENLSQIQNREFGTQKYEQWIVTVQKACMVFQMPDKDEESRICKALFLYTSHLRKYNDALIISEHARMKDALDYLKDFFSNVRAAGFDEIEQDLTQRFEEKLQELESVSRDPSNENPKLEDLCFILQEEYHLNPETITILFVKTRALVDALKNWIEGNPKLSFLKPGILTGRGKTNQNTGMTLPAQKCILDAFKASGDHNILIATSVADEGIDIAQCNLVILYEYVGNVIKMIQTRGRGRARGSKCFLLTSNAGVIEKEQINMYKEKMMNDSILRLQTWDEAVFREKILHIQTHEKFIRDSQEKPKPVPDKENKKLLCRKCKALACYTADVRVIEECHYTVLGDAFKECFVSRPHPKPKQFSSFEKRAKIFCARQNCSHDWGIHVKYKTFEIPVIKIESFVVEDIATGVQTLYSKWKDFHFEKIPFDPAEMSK
Description: co-IP; 293T cells co-transfected with both tagged proteins for 24 h; lysis in 1% NP40, 150 mM NaCl, 10 mM Tris-HCl pH 8.0, 10% glycerol, 1 mM EDTA; anti-Flag sepharose at 4 °C overnight; five washes with 300 mM NaCl; immunoblot.

In test [5] the target is T3, Flag-MDA5 (melanoma differentiation-associated gene 5) (UniProt Q9BYX4).
T3 sequence: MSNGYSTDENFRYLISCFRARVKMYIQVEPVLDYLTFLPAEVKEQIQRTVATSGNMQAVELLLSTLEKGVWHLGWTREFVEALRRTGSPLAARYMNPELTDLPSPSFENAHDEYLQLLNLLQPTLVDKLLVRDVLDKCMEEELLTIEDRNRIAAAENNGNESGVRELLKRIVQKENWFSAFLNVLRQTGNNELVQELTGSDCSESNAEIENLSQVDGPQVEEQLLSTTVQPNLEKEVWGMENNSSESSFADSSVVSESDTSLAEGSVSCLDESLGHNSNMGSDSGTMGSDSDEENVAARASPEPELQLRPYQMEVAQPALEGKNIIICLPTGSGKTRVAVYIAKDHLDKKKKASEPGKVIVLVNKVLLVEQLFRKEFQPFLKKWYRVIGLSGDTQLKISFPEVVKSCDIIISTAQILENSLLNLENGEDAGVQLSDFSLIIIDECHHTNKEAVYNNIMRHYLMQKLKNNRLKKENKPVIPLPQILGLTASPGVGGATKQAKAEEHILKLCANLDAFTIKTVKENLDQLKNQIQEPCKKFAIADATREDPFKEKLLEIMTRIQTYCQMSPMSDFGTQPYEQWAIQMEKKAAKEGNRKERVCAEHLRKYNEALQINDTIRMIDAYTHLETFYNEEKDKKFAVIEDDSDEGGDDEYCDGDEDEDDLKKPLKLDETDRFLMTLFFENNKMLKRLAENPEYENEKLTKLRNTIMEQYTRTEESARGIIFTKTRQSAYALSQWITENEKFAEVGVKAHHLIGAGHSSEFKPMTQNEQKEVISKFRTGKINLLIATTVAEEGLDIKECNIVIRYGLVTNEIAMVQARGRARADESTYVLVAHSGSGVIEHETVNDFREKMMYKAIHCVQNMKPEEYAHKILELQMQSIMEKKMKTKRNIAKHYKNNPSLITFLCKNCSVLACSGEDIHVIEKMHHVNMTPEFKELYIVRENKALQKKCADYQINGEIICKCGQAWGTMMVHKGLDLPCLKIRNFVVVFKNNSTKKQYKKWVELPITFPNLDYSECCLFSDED
The test is described as above.

The target of test [6] is Flag-MAVS (mitochondrial antiviral signaling protein) (UniProt Q7Z434). The test is described as above.
In the next test the target is Myc-MAVS (UniProt Q7Z434). Description: co-IP; competition format: 293T cells co-transfected for 24 h with a Flag-tagged bait, a tagged partner and a third protein (increasing amounts of Myc-MST4; or Myc-TRAF3 and Myc-MST4 together); anti-Flag beads; immunoblot.
For another test, the target named is HA-MAVS 360-540 (UniProt Q7Z434). The description is as above.
For test [7], the target named is Flag-MAVS (mitochondrial antiviral signaling protein) (UniProt Q7Z434). The description is as above.
Test [8] has as its target endogenous MST4 (human (endogenous in HEK293T)) (UniProt Q9P289). In words: co-IP; endogenous proteins; 293T cells (for TRAF3: 293T-sh-Control and 293T-sh-MST4) infected with SeV for 8 h; immunoprecipitation with anti-MST4 or anti-TRAF3 antibody or control rabbit IgG, Protein A/G PLUS-Agarose; immunoblot.
Test [9] has as its target Flag-Smurf1 (E3 ubiquitin ligase Smurf1) (UniProt Q9HCE7). Description: co-IP; 293T cells transfected with Flag-Smurf1 with or without Myc-MST4 for 24 h; anti-Flag beads; MAVS (no MAVS plasmid named) detected by immunoblot.

Take “HA-MAVS, full length (from UniProt Q7Z434 1-540)”: the binding entry in test [1] is recorded as “binds”.

Take Myc-MAVS (from UniProt Q7Z434 1-540): the binding entry in test [2] is on record as “binds”; in test [3], “no binding”; with Flag-IKKε (human), “binds”.

Turning to “Myc-MST4 (mammalian sterile 20-like kinase 4) (from UniProt Q9P289 1-416) (enzyme)”, the binding result in test [4] is on record as “no binding”; in test [5], “no binding”; in [6], “binds”; in the test with Myc-MAVS it was “binds”; in the test with HA-MAVS 360-540 it was “binds”; in test [7], “binds”.

In the case of “endogenous MAVS (from UniProt Q7Z434 1-540)”, the binding result in test [8] and in [9] was “binds” each time.
